Z-score data for 32 compounds are collected here from PubChem BioAssay AID488969 (Vanderbilt High Throughput Screening Facility, 2010).

Whole data set: some 110,000 compounds, median “z-score” near -0.1, cut for the highest 2% near 2. This is one part of the list.

For the assay, the target named is Metabotropic glutamate receptor 8 (Rattus norvegicus) (UniProt P70579). The experiment in a line: rat mGluR8 modulators via GIRK flux, primary screen, cell-based, thallium flux, HTS (AID 488969). Conditions: HEK293 rat mGluR8, GIRK (G protein-gated inwardly rectifying potassium channel) thallium flux, FluoZin2; at 10 µM; stronger effect = higher value; submaximal glutamate (EC20) added with thallium.
UniProt P70579, sequence (P70579 whole entry, looked up): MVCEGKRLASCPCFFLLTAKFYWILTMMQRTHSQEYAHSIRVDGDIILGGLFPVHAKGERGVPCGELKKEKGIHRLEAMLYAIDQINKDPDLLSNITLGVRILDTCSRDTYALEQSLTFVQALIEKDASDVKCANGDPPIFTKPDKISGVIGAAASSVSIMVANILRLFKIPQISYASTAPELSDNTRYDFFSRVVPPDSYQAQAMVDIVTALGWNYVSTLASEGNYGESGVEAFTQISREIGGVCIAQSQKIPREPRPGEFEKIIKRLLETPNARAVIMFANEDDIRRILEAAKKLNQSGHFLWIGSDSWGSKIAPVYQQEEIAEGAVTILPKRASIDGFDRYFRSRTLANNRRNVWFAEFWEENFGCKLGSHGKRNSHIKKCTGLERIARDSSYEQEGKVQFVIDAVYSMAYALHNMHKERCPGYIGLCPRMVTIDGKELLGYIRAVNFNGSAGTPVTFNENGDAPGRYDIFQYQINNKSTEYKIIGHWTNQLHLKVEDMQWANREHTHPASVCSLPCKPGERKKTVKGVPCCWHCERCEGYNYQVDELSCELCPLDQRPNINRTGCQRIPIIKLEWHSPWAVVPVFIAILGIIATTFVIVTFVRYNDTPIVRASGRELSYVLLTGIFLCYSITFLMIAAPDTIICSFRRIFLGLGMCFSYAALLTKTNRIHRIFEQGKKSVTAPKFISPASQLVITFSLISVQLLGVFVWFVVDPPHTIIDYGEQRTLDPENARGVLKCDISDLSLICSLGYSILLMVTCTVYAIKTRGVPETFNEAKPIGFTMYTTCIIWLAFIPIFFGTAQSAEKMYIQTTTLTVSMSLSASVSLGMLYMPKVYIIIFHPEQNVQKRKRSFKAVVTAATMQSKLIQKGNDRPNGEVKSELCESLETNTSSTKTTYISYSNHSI
On to `COc1ccc(-c2cnc(SCC(=O)Nc3ccc4c(c3)OCO4)n2Cc2ccco2)cc1`, for which the z-score was -0.0521.

`CCN(CC(=O)NC1CCS(=O)(=O)C1)c1ccc(S(C)(=O)=O)cc1[N+](=O)[O-]` (configuration not stated) showed a z-score of 0.469.

`O=C(CN1CCN(C2CCCCC2)CC1)c1ccc2cc[nH]c2c1` had a z-score of 0.203.

Consider `COc1ccccc1C1C=C(c2ccc(C)cc2)Nc2nnnn21` (configuration not stated), for which the z-score was -0.129.

Consider `COc1ccc(-n2c(C)c([N+](=O)[O-])c3ccc(O)c(CN(C)C)c32)cc1`, for which the z-score was -0.741.

Regarding `Cc1noc(C)c1C(=O)NCCc1ccccc1`, the z-score was 0.33.

Regarding `Cc1ccc(S(=O)(=O)N2CCCSCC2)cc1`, the z-score turned out to be 0.552.

Turning to `COc1ccc(S(=O)(=O)NC(C)C)cc1C(=O)NC1CCCCC1`, the z-score was -0.176.

As to `O=C(Nc1cccc2c1C(=O)NC2=O)c1ccc(S(=O)(=O)N2CCCC2)cc1`, the z-score is -0.0355.

For the compound `CCSc1nnc(NC(=O)C(C)(C(F)(F)F)C(F)(F)F)s1`, the z-score was -0.3.

Regarding `CCc1c(O)nc2sc3ccccc3n2c1=O`, the z-score was -0.0995.

Take `COC(=O)c1ccc(C(=O)OC)c(NC(=O)CSCc2ccc(Cl)cc2)c1`: the z-score was -0.149.

Regarding `COC(=O)c1ccccc1NC(=O)CN(C1CCCCC1)S(C)(=O)=O`, the z-score was -0.133.

For the compound `CCOc1ccc2c(c1)OC(c1ccccc1)(C(F)(F)F)NC2=O` (configuration not stated), the z-score was -0.247.

Regarding `FC(F)Sc1ccc(NC(=S)NCC2CCCCC2)cc1`, the z-score is -0.233.

On to `CCOc1ccc(C(N)=O)cc1OC`, for which the z-score is -0.083.

With `O=C(NCC1CCC(C(=O)O)CC1)c1cccnc1` (configuration not stated), the z-score came out at 1.63.

Regarding `CNCc1ccccc1Sc1cccc(O)c1`, the z-score came out at 0.252.

Take `O=C(C1CCCCC1)N(Cc1ccccc1)c1ccccn1`: the z-score is -0.809.

In the case of `COc1ccc(Nc2nc(N3CCCCC3)nc3ccccc23)c(OC)c1`, the z-score worked out at 2.6.

Take `COc1cc2c(cc1OC)-c1nnc(-c3ccco3)n1C1(CCCC1)C2`: the z-score was -0.271.

On to `C=CCN1C(=O)S/C(=C/c2ccsc2)C1=O`, for which the z-score was -0.0335.

`CCC(=O)OC1CC(C)N(C(=O)c2ccccc2)c2ccc(C)cc21` (configuration not stated): the z-score is -0.807.

In the case of `COC(=O)c1ccc(OC(=O)CCN2C(=O)C3C4c5ccccc5C(c5ccccc54)C3C2=O)cc1` (configuration not stated), the z-score was -0.3.

Consider `CCOC(=O)c1sc(-c2ccc(OC)cc2)cc1NC(C)=O`, for which the z-score is -0.181.

As to `Cc1cc(C)n2nc[n+](C)c2n1`, the z-score was -0.0994.

Turning to `C=CCn1c(=N)n(CC(=O)c2ccc(Br)s2)c2ccccc21`, the z-score was -1.22.

Turning to `O=C(NCc1ccc2c(c1)OCO2)C1CC(c2ccc(Cl)c(Cl)c2)=NO1` (configuration not stated), the z-score was -0.125.

As to `CCN(CC)C(=S)SCC(=O)c1c(C)[nH]c2ccccc12`, the z-score is -0.207.

On to `COc1ccc(NC(C)=O)cc1NC(=O)CN1CCN(CC(=O)Nc2ccccc2Cl)CC1`, for which the z-score is -1.02.

With `O=C(NCCN1CCCC1)c1ccc(CS(=O)(=O)c2c(Cl)cccc2Cl)o1`, the z-score was -0.063.

In turn, `O=C(O)C1(NS(=O)(=O)c2ccc(F)c(Cl)c2)CCCCC1` displayed a z-score of 0.157.
